Reference: PubChem BioAssay AID488969 (Vanderbilt High Throughput Screening Facility, 2010)
Whole data set: some 110,000 compounds, median “z-score” near -0.1, cut for the highest 2% near 2. The list shows a part of the results.

Biological target: Metabotropic glutamate receptor 8 (Rattus norvegicus) (UniProt P70579)
Assay: rat mGluR8 modulators via GIRK flux, primary screen, cell-based, thallium flux, HTS (AID 488969)
Settings: HEK293 rat mGluR8, GIRK (G protein-gated inwardly rectifying potassium channel) thallium flux, FluoZin2; at 10 µM; stronger effect = higher value; submaximal glutamate (EC20) added with thallium

Chain of UniProt P70579 (P70579 whole entry, looked up): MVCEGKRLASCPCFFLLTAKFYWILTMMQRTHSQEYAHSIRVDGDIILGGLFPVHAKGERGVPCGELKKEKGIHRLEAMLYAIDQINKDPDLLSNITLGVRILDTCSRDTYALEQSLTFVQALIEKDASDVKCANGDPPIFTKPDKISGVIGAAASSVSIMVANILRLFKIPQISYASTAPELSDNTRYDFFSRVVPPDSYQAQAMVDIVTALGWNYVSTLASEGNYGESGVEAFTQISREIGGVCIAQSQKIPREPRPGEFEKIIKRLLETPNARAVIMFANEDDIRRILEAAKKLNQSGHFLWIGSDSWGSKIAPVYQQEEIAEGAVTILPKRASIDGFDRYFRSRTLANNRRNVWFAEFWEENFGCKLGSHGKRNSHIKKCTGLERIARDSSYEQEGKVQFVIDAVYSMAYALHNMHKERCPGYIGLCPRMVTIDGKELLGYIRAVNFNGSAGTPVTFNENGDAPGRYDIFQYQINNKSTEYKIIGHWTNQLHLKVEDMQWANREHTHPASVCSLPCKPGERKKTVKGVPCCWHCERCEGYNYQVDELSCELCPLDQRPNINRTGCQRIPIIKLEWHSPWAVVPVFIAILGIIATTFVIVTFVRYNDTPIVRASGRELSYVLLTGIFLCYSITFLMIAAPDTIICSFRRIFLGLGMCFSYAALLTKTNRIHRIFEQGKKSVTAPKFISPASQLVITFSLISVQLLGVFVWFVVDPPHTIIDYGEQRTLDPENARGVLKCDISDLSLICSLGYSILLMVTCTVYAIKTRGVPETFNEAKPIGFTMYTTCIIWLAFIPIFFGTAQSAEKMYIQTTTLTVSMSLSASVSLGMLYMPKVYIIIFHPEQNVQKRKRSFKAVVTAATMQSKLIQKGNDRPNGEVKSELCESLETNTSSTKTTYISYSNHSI

In order of rising z-score:
1. N#C/C(=C/c1ccc(CNS(=O)(=O)c2ccccc2)o1)C(N)=O  -1.94
2. CC(=O)N1CCN(C(=S)c2ccc(N(C)C)cc2)CC1  -1.33
3. c1ccc(CN2CCN(c3ncnc4c3[nH]c3ccccc34)CC2)cc1  -0.972
4. O=C1c2[nH]nc(-c3ccccc3O)c2C(c2ccccc2F)N1Cc1ccco1 (stereo unspecified)  -0.966
5. Cc1cc(C)n(-c2cc(N3CCN(C(=O)c4ccc(C(C)(C)C)cc4)CC3)ccc2[N+](=O)[O-])n1  -0.687
6. CN(C(=O)COC(=O)C(Cc1ccccc1)NC(=O)c1ccccc1)c1ccccc1 (stereo unspecified)  -0.597
7. Cc1cccc(Cn2c(N3CCc4ccccc4C3)nc3c2c(=O)[nH]c(=O)n3C)c1  -0.576
8. Cn1c(SCC(=O)N/N=C/c2ccc([N+](=O)[O-])s2)nnc1-c1ccc(Cl)cc1  -0.571
9. CCCCn1c(=O)[nH]c2nc3cc(N)ccc3nc2c1=O  -0.557
10. CNc1oc(-c2ccccc2Cl)nc1C#N  -0.539
11. CCC(NC(=O)c1cccc(Cn2nc(C)c([N+](=O)[O-])c2C)c1)c1ccc(C(C)C)cc1 (stereo unspecified)  -0.524
12. CC(C)=C1C2CCC1C1C(=O)N(NC(=O)COc3ccc(Cl)c(C)c3)C(=O)C21 (stereo unspecified)  -0.481
13. N#C/C(=C(/O)C(Cl)c1ccccc1)c1nc2ccccc2s1 (stereo unspecified)  -0.476
14. COc1cc(-n2c(C)nc3cc(C(=O)N4CCOCC4)ccc32)cc(OC)c1OC  -0.458
15. Cc1ccc(NC(=O)CCNC(=O)c2ccco2)cc1  -0.441
16. CC(=O)Nc1ccc(NC2(C)C(=O)c3ccccc3C2=O)cc1  -0.426
17. CN(c1ccc(C(=O)NCCSCc2ccccc2)cc1)S(=O)(=O)c1ccccc1  -0.384
18. CCCOc1ccccc1N/C(=N/c1nc(C)cc(C)n1)NC(=O)Nc1ccc(Cl)cc1  -0.381
19. Cc1ccc(C(c2nnnn2CCc2ccccc2)N2CCC(C)CC2)cc1 (stereo unspecified)  -0.365
20. CCCN1CCC(NC(=O)Nc2ccccc2C(=O)OC)CC1  -0.336
21. COc1ccccc1-c1cc(C(F)(F)F)nc(S(=O)(=O)CCCC(=O)N2CCOCC2)n1  -0.331
22. COc1ccc(C2c3c(ccc4ccccc34)Oc3ncn4nc(-c5ccco5)nc4c32)cc1 (stereo unspecified)  -0.325
23. Oc1c(C=Nc2cccnc2)sc2ccccc12  -0.313
24. O=C(NCCO)c1ccc2[nH]c3c(c2c1)CCCC3  -0.308
25. CC1CCN(S(=O)(=O)c2cccc(-c3cn4cc(Cl)ccc4n3)c2)CC1  -0.297
26. Cc1noc(/C=C/N(C)C)c1S(=O)(=O)N1CCCC(C(=O)NCc2ccc(Cl)cc2)C1 (stereo unspecified)  -0.29
27. COc1ccc(/C=N/NC(=O)CCc2nc3ccccc3[nH]2)cc1  -0.286
28. CC(C)=C1C2CCC1C1C(=O)N(c3ccc(C)c(C)c3)C(=O)C21 (stereo unspecified)  -0.284
29. CCC(=O)Nc1ccc(-c2nnc(SCC(=O)NCC3CCCO3)n2C)cc1 (stereo unspecified)  -0.274
30. CC(C)OP(=O)(c1ccccc1)c1ccccc1  -0.264
31. COc1ccc(C(=O)Nc2ccc([N+](=O)[O-])cn2)cc1OC  -0.261
32. CC(=O)N1c2ccccc2C(C)(C)C2CCC(C)CC21 (stereo unspecified)  -0.247
33. CCCCOc1ccc(C(C)NC(=O)CCS(=O)(=O)Cc2ccccc2F)cc1 (stereo unspecified)  -0.246
34. O=C1CC(N2CCN(c3ccccc3Cl)CC2)C(=O)N1c1ccccc1 (stereo unspecified)  -0.24
35. CCC(=O)Nc1ccc(C(=O)OCc2ccc(Cl)c(Cl)c2)cc1  -0.236
36. Cn1c(=O)c2c(=O)cc(NNC(=O)C(C)(C)C)[nH]c2n(C)c1=O  -0.232
37. COc1cccc(-c2nnc3sc(C4CCCCC4)nn23)c1  -0.229
38. COC(=O)C(C)Oc1ccc(-c2nccc(-c3cccs3)n2)cc1 (stereo unspecified)  -0.201
39. CCC(C)(C)C1CCc2c(sc(NC(=O)c3ccoc3C)c2C(N)=O)C1 (stereo unspecified)  -0.179
40. Cc1c(NC(=O)COC(=O)c2ccc[nH]c2=O)c(=O)n(-c2ccccc2)n1C  -0.172
41. O=C(CSc1ccc(-c2nc3ccccc3[nH]2)cn1)Nc1ccc(S(=O)(=O)NC2CC2)cc1  -0.167
42. CCC1(CC)NC(=O)NC1=O  -0.161
43. CC1CC1C(=O)OCC(=O)NCc1ccc(Cl)cc1 (stereo unspecified)  -0.151
44. CCN1C(=O)CC(N2CCC(C(=O)N3CCOCC3)CC2)C1=O (stereo unspecified)  -0.151
45. CN(C)c1ccc(N=Nc2ccccc2C(=O)OCC(=O)NCC2CCCCC2)cc1  -0.149
46. COc1ccc(-c2coc3cc4oc(=O)cc(-c5ccccc5)c4cc23)cc1F  -0.146
47. O=C(/C=C/Nc1ccc(F)cc1Br)c1ccccc1  -0.125
48. O=C(CNc1n[nH]c(=O)[nH]c1=O)N/N=C/c1cccnc1  -0.114
49. C/C(=N\NC(=O)CSc1nc(C)cc(C)n1)c1cccs1  -0.111
50. C=CCN(CC=C)S(=O)(=O)c1ccc(NC(=S)NC(=O)c2ccc(-c3ccccc3)cc2)cc1  -0.107
51. COC(=O)c1ccc(COc2ccc(/C=C(\C#N)c3nc4ccccc4[nH]3)cc2OC)o1  -0.106
52. CCn1nccc1C(=O)Nc1ccc(Cl)cc1Cl  -0.1
53. CCc1cc2c(=O)c(-c3cscn3)coc2c(CN(C)C)c1O  -0.0987
54. CCOC(=O)c1cnn(Cc2ccccc2)c1N  -0.0923
55. OCCNc1nc2ccccc2n1CCN1CCCCC1  -0.0913
56. Cc1cc(C)cc(N=Cc2[nH]c3ccc(Br)c(Cl)c3c2O)c1  -0.078
57. COC(=O)CNC(=O)C1CCN(C(=O)OCc2ccccc2)CC1  -0.0732
58. O=C(Oc1ccc(-c2nccc(-c3ccccn3)n2)cc1)c1cccc(C(F)(F)F)c1  -0.0661
59. CCN(CC)C(=O)Nc1c(C)n(C)n(-c2ccccc2)c1=O  -0.0603
60. COC(=O)c1ccc(NC(=O)c2ccc(C)cc2)o1  -0.057
61. Brc1ccc(-c2nnc(-c3cccc(Br)c3)o2)cc1  -0.0484
62. COc1ccc([N+](=O)[O-])cc1NC1CCCCC1  -0.0473
63. CCOC(=O)C1C(C)=CC(=O)CC1c1ccco1 (stereo unspecified)  -0.0303
64. CCOCCCNC(=O)c1ccc(OC)cc1  -0.0294
65. CC(=O)c1c(C)[nH]c(C(=O)OCC(=O)NCCc2ccc(Cl)cc2)c1C  -0.0247
66. Cc1ccc(S(=O)(=O)CC2CSc3nnc(C)c(=O)n32)cc1 (stereo unspecified)  0.000957
67. CC(C)(C)c1ccc(-c2nnc(SCCN3C(=O)c4ccccc4C3=O)o2)cc1  0.012
68. Cc1ccc(NC(=O)CSc2ccccc2NC(=O)c2ccccc2Cl)cc1Cl  0.0238
69. O=C(COc1ccc(S(=O)(=O)NC2CCCCC2)cc1)N1CCN(c2cccc(Cl)c2)CC1  0.0292
70. CC1Cc2nc(SCC(=O)NCC3CCCO3)n(Cc3ccccc3)c(=O)c2S1 (stereo unspecified)  0.0446
71. Cc1c(NCc2nc3ccccc3[nH]2)c(=O)n(-c2ccccc2)n1C  0.0464
72. Cc1ccc(N/N=C(\C#N)C(=N)N2CCOCC2)cc1  0.0551
73. O=C(NC(=S)Nn1cnc2c(cnn2-c2ccccc2)c1=O)c1ccc(Cl)cc1  0.0584
74. COC(=O)c1ccccc1NC(=O)C(C)NS(=O)(=O)c1ccc(OC)cc1 (stereo unspecified)  0.0602
75. Cc1cccc(NC(=S)N2CCN(c3cc(C)ccc3C)CC2)c1  0.0636
76. Cc1cc(NC(=O)CSc2nccn2-c2ccc(Cl)cc2)no1  0.0698
77. Cc1ccc(OCC(=O)Nc2ccccc2-c2ccccc2NC(=O)COc2ccc(C)cc2)cc1  0.0801
78. Cn1cnnc1SCC(=O)N1CCc2ccccc21  0.101
79. Cc1ccc(-n2ncc3c(=O)n(CC#N)cnc32)cc1C  0.124
80. O=C(CSc1ncnc2c1oc1ccccc12)Nc1ccc2c(c1)OCCO2  0.128
81. CSc1ccccc1C(=O)NCC1CCCO1 (stereo unspecified)  0.131
82. O=C(NNC(=S)NC(=O)c1ccccc1[N+](=O)[O-])c1ccccc1  0.138
83. Cc1onc(-c2ccccc2Cl)c1C(=O)N1C=CC(C(F)(F)F)=NCC1  0.16
84. CC(=O)c1cc(C#N)c(Oc2ccc(Cl)cc2Cl)nc1C  0.172
85. Cc1cc(Cl)c(S(=O)(=O)N2CCN(c3ccccc3)CC2)cc1OCC(N)=O  0.194
86. Fc1ccccc1N1CCN(c2cnc3ccccc3n2)CC1  0.211
87. CCC1C(=O)N=C(SCC(=O)Nc2ccc(C(=O)OC)cc2)NC1=O (stereo unspecified)  0.238
88. CCOC(=O)/C=C1\SCC(=O)N1CC(=O)Nc1ccc2c(c1)CCC2  0.245
89. O=C(NCCc1ccc(Cl)cc1)c1cccnc1  0.268
90. CCC(C)(C)NC(=O)Cc1ccc(C)cc1  0.28
91. Cc1ccc(S(=O)(=O)N2CCC(C(=O)Nc3nnc(C45CC6CC(CC(C6)C4)C5)s3)CC2)cc1  0.299
92. Cc1ccc(C(=O)/C=C2\NCC(C)NC2=O)cc1 (stereo unspecified)  0.338
93. CCCN(c1ccc(C(C)C)cc1)S(=O)(=O)c1c(C)noc1C  0.356
94. C=CCC(O)(CCN1CCCCC1)c1ccccc1 (stereo unspecified)  0.382
95. CC(=O)NCc1ccc(-c2csc(N)n2)s1  0.445
96. Cc1cccc(NC(=O)CSc2nc3c(oc4ccccc43)c(=O)n2-c2ccccc2)c1  0.449
97. COc1ccc(CNC(=O)c2cnn3c(C(F)F)cc(C)nc23)cc1  0.456
98. O=C(COC(=O)C1CCCN1C(=O)c1cccs1)Nc1ccc2c(c1)OCO2 (stereo unspecified)  0.489
99. O=C(NCCc1ccc(Cl)cc1)Nc1cccc(Cl)c1  0.529
100. O=C(Nc1ccccc1)O/N=C/c1ccccc1Cl  0.549
101. COc1cc(S(=O)(=O)N2CCCC3(CCCCC3)C2)ccc1-n1cnnn1  0.577
102. CC1CCCCN1C(=O)C12CCC(C)(/C(=N/O)C1)C2(C)C (stereo unspecified)  0.611
103. COc1cccc(CNc2cccc3cccnc23)c1O  0.672
104. COc1ccc(N2CCN(c3oc(-c4ccc(OC)c(OC)c4)nc3C#N)CC2)cc1  0.693
105. O=C(c1ccc(F)cc1)C1CCN(C(=O)Nc2ccc(F)cc2)CC1  0.764
106. CCc1c(C)sc(NC(=O)c2cc(-c3ccco3)on2)c1C#N  0.805
107. COC(=O)c1c(NC(=O)c2ccc(C)cc2)sc(Cc2ccccc2)c1C  0.935
108. CCNS(=O)(=O)c1ccc2nc(NC(=O)c3cccnc3)sc2c1  1.17
109. Cc1cc(OCCN2CCCC2)ccc1C(C)C  1.23
110. O=C(N/N=C/c1ccco1)C1CC1(c1ccccc1)c1ccccc1 (stereo unspecified)  1.35
111. CC1Oc2ccccc2N(CC(=O)NCCc2ccccc2)C1=O (stereo unspecified)  2.08
